For the assay, the target named is Nonstructural protein 3 (Zika virus) (UniProt A0A024AXB9).
Setting [1] is: PRVABC59, Concentration 50.0 uM, Number of replicates 1.0.
Setting [2] is: PRVABC59, Concentration 15.0 uM, Number of replicates 1.0.
[3] abbreviates: PRVABC59, Concentration 10.0 uM, Number of replicates 1.0.

About 160 (5.9%) of roughly 2,700 compounds showed an effect of 50% or more. The list shows a part of the results.

Chain of UniProt A0A024AXB9 (A0A024AXB9 as listed by the source): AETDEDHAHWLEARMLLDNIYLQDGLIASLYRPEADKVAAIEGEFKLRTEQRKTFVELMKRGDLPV

A word on the inhibition: it is the change of the read-out against control, counted positive when it falls. As to `COc1ccc(S(=O)(=O)Nc2ccc(C(=O)Nc3nccs3)cc2)cc1`, the inhibition by setting is: (PRVABC59, Concentration 49.5 uM, Number of replicates 2.0, Standard deviation 0.4374719806633149 %) -2.38%; (PRVABC59, Concentration 99.01 uM, Number of replicates 2.0, Standard deviation 0.6866406930181425 %) -2.04%; (PRVABC59, Concentration 198.0 uM, Number of replicates 2.0, Standard deviation 2.8226447457178896 %) -5.52%.

For the compound `c1ccc2c(C[C@H]3COCCN3Cc3n[nH]c4ccccc34)c[nH]c2c1`, the inhibition runs as follows: (PRVABC59, Concentration 49.5 uM, Number of replicates 2.0, Standard deviation 2.3213558615007135 %) 3.6%; (PRVABC59, Concentration 99.01 uM, Number of replicates 2.0, Standard deviation 2.1736805535764847 %) 8.35%; (PRVABC59, Concentration 198.0 uM, Number of replicates 2.0, Standard deviation 1.6192495510088922 %) 13.2%.

In the case of `COc1cccc(CN(C(=O)C2CCN(c3ccc(C=O)cc3)CC2)C23CC4CC(CC(C4)C2)C3)c1`, the inhibition under setting [1] amounted to 31.6%.

In the case of `O=C(Nc1ccc(F)cc1C(F)(F)F)c1cc(Cl)ccc1NS(=O)(=O)c1ccc(Oc2ccccc2Cl)cc1`, under setting [2], the inhibition stood at 25%.

For `O=Cc1ccc(N2CCC(C(=O)N3CCN(Cc4cccc(F)c4)CC3)CC2)cc1`, under setting [1], the inhibition was found to be 21.9%.

As for `Cc1cc(CO)c2cccc(NC(=O)CCN)c2n1`, the inhibition by setting is: (PRVABC59, Concentration 49.95 uM, Number of replicates 2.0, Standard deviation 0.34164167967973086 %) 58.9%; (PRVABC59, Concentration 99.9 uM, Number of replicates 2.0, Standard deviation 0.25939261057290325 %) 94.2%.

For `CN(CCc1ccc([N+](=O)[O-])cc1)C(=O)C1CCN(c2ccc(C=O)cc2)CC1`, the inhibition under setting [1] was found to be 28.5%.

Take `CNC(=O)Cc1cn(S(=O)(=O)c2ccc(Oc3ccccc3Cl)cc2)c2ccc(Cl)cc12`: the inhibition worked out at 9.42% (PRVABC59, Concentration 49.5 uM, Number of replicates 2.0, Standard deviation 2.185088188181837 %); 11.4% (PRVABC59, Concentration 99.01 uM, Number of replicates 2.0, Standard deviation 0.10446686459304239 %); 15.5% (PRVABC59, Concentration 198.0 uM, Number of replicates 2.0, Standard deviation 2.478900275472253 %).

In the case of `Cc1cc(CO)c2cccc(Cc3ccccc3C(=O)N[C@H]3C[C@@H](O)C3)c2n1`, the inhibition was -8.45% (PRVABC59, Concentration 49.95 uM, Number of replicates 2.0, Standard deviation 0.08913889872660044 %) and -7.69% (PRVABC59, Concentration 99.9 uM, Number of replicates 2.0, Standard deviation 0.1730340551488695 %).

Consider `CCCOc1cccc(CCNC(=O)c2cc(Cl)ccc2NS(=O)(=O)c2ccc(Oc3ccccc3Cl)cc2)c1`, for which the inhibition under setting [2] was found to be 28.2%.

Consider `CCc1ccc(CN(CC(C)C)C(=O)c2cc(Cl)ccc2NS(=O)(=O)c2ccc(Oc3ccccc3Cl)cc2)cc1`, for which, under setting [2], the inhibition turned out to be 25.6%.

As to `Cc1n[nH]c(NC(=O)c2cc(Cl)ccc2NS(=O)(=O)c2ccc(Oc3ccccc3Cl)cc2)c1Br`, the inhibition under setting [2] was 38%.

Regarding `Cc1cc(NC(=O)C2CCN(c3ccc(C=O)cc3)CC2)cc(C)c1Br`, the inhibition under setting [1] is 17.4%.

For `N#Cc1cc(Cl)c(NC(=O)C2CCN(c3ccc(C=O)cc3)CC2)c(Cl)c1`, under setting [1], the inhibition stood at 24.3%.

Consider `O=C(Nc1cc(Br)cc(C(F)(F)F)c1)c1cc(Cl)ccc1NS(=O)(=O)c1ccc(Oc2ccccc2Cl)cc1`, for which the inhibition under setting [2] stood at 24%.

For the compound `COc1cc(CNC(=O)C2CCN(c3ccc(C=O)cc3)CC2)cc(OC)c1OC`, the inhibition under setting [1] is 29.5%.

`CSCC[C@H](NC(=O)OC(C)(C)C)C(=O)N1CCC[C@H]1C(=O)Nc1ccc(CN)cc1`: the inhibition is, setting by setting: (PRVABC59, Concentration 49.5 uM, Number of replicates 2.0, Standard deviation 0.21792892032952232 %) 0.712%; (PRVABC59, Concentration 99.01 uM, Number of replicates 2.0, Standard deviation 0.11415322190521009 %) 3.13%; (PRVABC59, Concentration 198.0 uM, Number of replicates 2.0, Standard deviation 3.3166708849996684 %) 5.1%.

For the compound `O=Cc1ccc(N2CCC(C(=O)N3CCN(CC(=O)N4CCOCC4)CC3)CC2)cc1`, under setting [1], the inhibition stood at 19.3%.

Take `O=Cc1ccc(N2CCC(C(=O)Nc3cc(Cl)ccc3Br)CC2)cc1`: the inhibition under setting [1] was 19.5%.

Regarding `O=Cc1ccc(N2CCC(C(=O)N(CCCO)Cc3ccncc3)CC2)cc1`, the inhibition under setting [1] is 21.9%.

Take `CNC(=O)[C@H]1CCCN(S(=O)(=O)c2ccc(Oc3ccccc3Cl)cc2)C1`: the inhibition reads like this: (PRVABC59, Concentration 49.5 uM, Number of replicates 2.0, Standard deviation 4.537978996087977 %) 5.38%; (PRVABC59, Concentration 99.01 uM, Number of replicates 2.0, Standard deviation 0.050727272518135885 %) 6.35%; (PRVABC59, Concentration 198.0 uM, Number of replicates 2.0, Standard deviation 0.9173185714068767 %) 4.62%.

With `O=Cc1ccc(N2CCC(C(=O)N(Cc3c(F)cccc3Cl)C3CC3)CC2)cc1`, the inhibition under setting [1] came out at 23.1%.

For the compound `O=C(Nc1ccc2cc(Br)ccc2c1)c1cc(Cl)ccc1NS(=O)(=O)c1ccc(Oc2ccccc2Cl)cc1`, under setting [2], the inhibition stood at 45.9%.

With `Cc1cc(CO)c2cccc(NC(=O)Cc3c(C)c4c(=O)[nH]n(C)c4[nH]c3=O)c2n1`, the inhibition runs as follows: (PRVABC59, Concentration 49.95 uM, Number of replicates 2.0, Standard deviation 0.16559867672197162 %) 15%; (PRVABC59, Concentration 99.9 uM, Number of replicates 2.0, Standard deviation 1.570678848435362 %) 29.8%.

As for `COc1cc2c(cc1OC)CN(C(=O)c1cc(Cl)ccc1NS(=O)(=O)c1ccc(Oc3ccccc3Cl)cc1)CC2`, the inhibition under setting [2] was found to be 14%.

Regarding `COCCN(Cc1cccc2ccccc12)C(=O)c1cc(Cl)ccc1NS(=O)(=O)c1ccc(Oc2ccccc2Cl)cc1`, the inhibition under setting [2] worked out at 21.2%.

On to `COc1ccc(CNC(=O)C2CCN(c3ccc(C=O)cc3)CC2)c(Cl)c1`, for which the inhibition under setting [3] was 9.91%.

For `CC1(C)[C@H]2CC[C@]1(C)[C@H](NC(=O)c1cc(Cl)ccc1NS(=O)(=O)c1ccc(Oc3ccccc3Cl)cc1)C2`, under setting [2], the inhibition came out at 42.8%.

Turning to `O=Cc1ccc(N2CCC(C(=O)NCc3ccc(F)c(Cl)c3)CC2)cc1`, the inhibition under setting [3] amounted to 22.8%.

Turning to `O=Cc1ccc(N2CCC(C(=O)Nc3ccc(-n4ccnc4)cc3)CC2)cc1`, under setting [1], the inhibition worked out at 22.6%.

For the compound `Cc1cc(CO)c2cccc(Cc3cccc(NC(=O)C[C@H]4CCCN4)c3)c2n1`, the inhibition (PRVABC59, Concentration 49.95 uM, Number of replicates 2.0, Standard deviation 0.1706171862678608 %) was -9.82%.

On to `CNC(=O)c1cc(Cl)ccc1NS(=O)(=O)c1ccc(Cl)cc1C(=O)OC`, for which the inhibition was -0.406% (PRVABC59, Concentration 49.5 uM, Number of replicates 2.0, Standard deviation 3.210164618700881 %); 2.47% (PRVABC59, Concentration 99.01 uM, Number of replicates 2.0, Standard deviation 3.769495150261016 %); 6.64% (PRVABC59, Concentration 198.0 uM, Number of replicates 2.0, Standard deviation 2.8227683202777234 %).

For the compound `O=Cc1ccc(N2CCC(C(=O)Nc3n[nH]cc3Br)CC2)cc1`, the inhibition under setting [1] came out at 19%.

On to `Cn1cc(NC(=O)c2ccccc2C(F)(F)F)c(-c2ccc3nncn3c2)n1`, for which the inhibition is -8.05% (PRVABC59, Concentration 49.5 uM, Number of replicates 2.0, Standard deviation 1.0863104066087632 %); -5.65% (PRVABC59, Concentration 99.01 uM, Number of replicates 2.0, Standard deviation 0.7461135208959859 %); -3.1% (PRVABC59, Concentration 198.0 uM, Number of replicates 2.0, Standard deviation 0.13143966752825625 %).

With `O=C(Nc1ccccc1I)c1cc(Cl)ccc1NS(=O)(=O)c1ccc(Oc2ccccc2Cl)cc1`, the inhibition under setting [2] amounted to 26.7%.

As to `Cc1cc(CO)c2cccc(Cc3cccc(NC(=O)c4ccc(O)cc4)c3)c2n1`, the inhibition is, setting by setting: (PRVABC59, Concentration 49.95 uM, Number of replicates 2.0, Standard deviation 2.8960178571157167 %) -0.029%; (PRVABC59, Concentration 99.9 uM, Number of replicates 2.0, Standard deviation 3.293011583000684 %) 3.78%.

As for `O=Cc1ccc(N2CCC(C(=O)Nc3ccc4nccnc4c3Br)CC2)cc1`, the inhibition under setting [1] turned out to be 13.2%.

Take `Cc1cnccc1NC(=O)C1(C(=O)Nc2ccc(F)cc2)CC1`: the inhibition is, setting by setting: (PRVABC59, Concentration 49.5 uM, Number of replicates 2.0, Standard deviation 2.17886191854502 %) 0.65%; (PRVABC59, Concentration 99.01 uM, Number of replicates 2.0, Standard deviation 2.3265375425706125 %) 1.23%; (PRVABC59, Concentration 198.0 uM, Number of replicates 2.0, Standard deviation 2.36280863571033 %) 2.11%.

Take `c1ccc2c([C@H]3CCN(Cc4ccnn4C4CCOCC4)C3)c[nH]c2c1`: the inhibition was 2.73% (PRVABC59, Concentration 49.5 uM, Number of replicates 2.0, Standard deviation 0.9689729060048582 %); 5.36% (PRVABC59, Concentration 99.01 uM, Number of replicates 2.0, Standard deviation 1.2714567916700876 %); 10.1% (PRVABC59, Concentration 198.0 uM, Number of replicates 2.0, Standard deviation 1.125341760077732 %).

As for `CC1(C)CC(O)CC(C)(C)N1C(=O)C1CCN(c2ccc(C=O)cc2)CC1`, the inhibition under setting [1] is 28.7%.

Regarding `O=C(NCc1ccc(SC(F)(F)F)cc1)c1cc(Cl)ccc1NS(=O)(=O)c1ccc(Oc2ccccc2Cl)cc1`, the inhibition under setting [2] was 24.1%.

Regarding `O=Cc1ccc(N2CCC(C(=O)NC3CCN(C(=O)Nc4ccccc4)CC3)CC2)cc1`, the inhibition under setting [1] came out at 27.1%.

In the case of `Cc1cc(CO)c2cccc(NC(=O)[C@H](N)CCO)c2n1`, the inhibition (PRVABC59, Concentration 49.95 uM, Number of replicates 2.0, Standard deviation 1.0738831554442352 %) is -6.11% and the inhibition (PRVABC59, Concentration 99.9 uM, Number of replicates 2.0, Standard deviation 2.7198345051524164 %) was -0.085%.

Source of the values: ChEMBL document CHEMBL5606458, “ASAP - ZIKV NS2B-NS3 protease fluorescence single point” (2024).
